Assay results reported in paper PMC6556554.

Assays:
[1] = target: Apolipoprotein E4 (human) (UniProt P02649); assay: SAXS; in-line SEC-SAXS, 10 mg/mL, 20 °C, 20 mM Hepes, 300 mM NaCl pH 8.0, Shodex Kw-403 column
[2] = target: Apolipoprotein E4 (human) (UniProt P02649); assay: SEC + SEC-MALS; gel filtration on HiLoad Superdex 26/600 200 pg in 20 mM Hepes, 300 mM NaCl, 10% glycerol pH 8.0; SEC-MALS at 5 mg/mL in 20 mM Hepes, 300 mM NaCl, 1 mM TCEP pH 8.0, RT, Shodex Kw-403 column; oligomer in solution

Apolipoprotein E4 (a stretch of the chain, sequence not shown) (natural protein; other documents disagree on this pair)
stoichiometry N [1]: 4 | stoichiometry N [2]: 4
